Several values for one entry are separate records, joined by “and”; a condition that tells them apart may be missing. Equal values may be shown once. Screen size: about 390,000 compounds; about 2,200 (0.56%) were called active. The shares of active, inactive and inconclusive entries below differ from those in the screen. Calls follow the shape of the dose curve; as a rule, active = well fitted inhibition curve with a large enough effect; inconclusive = small, poorly fitted or top-dose-only effect; inactive = no such curve, though single readings can be large or run the other way. Potencies of inconclusive entries are doubtful fits and often do not repeat.
What follows are compounds tested against Chromobox protein homolog 1 (Homo sapiens) (UniProt P83916) (assay: HTS for Inhibitors of HP1-beta Chromodomain Interactions with Methylated Histone Tails). Settings: AlphaScreen HP1-beta / biotin-H3K9me3 peptide binding; series mostly up to 114 µM.
Chain of UniProt P83916 (P83916 whole entry, looked up): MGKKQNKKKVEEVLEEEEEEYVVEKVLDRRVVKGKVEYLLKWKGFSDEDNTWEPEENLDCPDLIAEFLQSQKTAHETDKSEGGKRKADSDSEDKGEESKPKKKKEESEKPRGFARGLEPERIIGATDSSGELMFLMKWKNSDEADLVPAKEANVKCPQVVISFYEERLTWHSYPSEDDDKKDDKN
Procedure, shortened: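 AlphaScreen: HP1-beta (50 nM) preformed 30 min with biotin-H3(1-18)K9me3 peptide (50 nM) in PBS pH 7.4, 0.01% Tween-20. Compound added for 30 min at RT, then streptavidin donor/nickel chelate acceptor beads (10 ug/mL) for 30 min.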
With Cc1ccc(O)c(C(=O)C=Cc2ccccc2)c1 the Potency was inconclusive: 56.2 µM [inhibitor, single point].
In the case of Cc1cc(=O)n(CC(=O)NC(C)c2ccccc2)c2c1c(C)nn2-c1cccc(F)c1 (stereo not given), the Potency is reported as “inactive”.
In the case of Cc1ccc(/C=C/C(=O)Nc2ccc(Oc3ccccc3)cc2)o1, the Potency is reported as inconclusive: 15.8 µM [inhibitor, partial curve, poor fit].
In the case of Cc1nc2ccccn2c1-c1csc(NCc2ccco2)n1, the Potency is reported as “inactive”.
COc1ccc(OCCn2cncn2)cc1 was tested, and the Potency was “inactive”.
In the case of COc1cccc(C(c2sc3nc(C)nn3c2O)N2CCC3(CC2)OCCO3)c1 (stereo not given), the Potency is reported as inconclusive: 39.8 µM [inhibitor, single point].
Cc1ccc(N=Nc2ccc(O)cc2)c(Br)c1 was tested, and the Potency was inconclusive: 56.2 µM [inhibitor, partial curve, poor fit].
In the case of O=C(NCc1ccco1)c1ccccc1-c1nc(-c2ccc(F)cc2)no1, the Potency is reported as “inactive”.
With N/C(=N\OC(=O)CSc1ccccc1)c1ccc([N+](=O)[O-])cc1 the Potency was inconclusive: 39.8 µM [inhibitor, partial curve].
For O=C(NCc1ccc2c(c1)OCO2)c1ccc2c(c1)N(Cc1ccccc1F)C(=O)c1ccccc1S2=O (stereo not given), the Potency was “inactive”.
For CCN(Cc1ccncc1)Cc1c(O)ccc2ccccc12, the Potency was inconclusive: 79.4 µM [inhibitor, partial curve].
For O=C(C[C@H]1C/C=C\C[C@H](Cc2ccc(F)cc2)C(=O)O[C@@H](c2ccccc2)CNC1=O)N[C@H](CO)Cc1ccccc1, the Potency was “inactive”.
For Cc1cc(C(=O)NNC(=O)c2cccc(Cl)c2)no1, the Potency was inconclusive: 3.98 µM [inhibitor, partial curve, poor fit].
For Cc1cc(=O)c2c([nH]1)c(C)cc1[nH]c(C)c(C)c12, the Potency was “inactive”.
With CCOC(=O)N1CCN(CC(=O)N2c3ccccc3CC2C)CC1 (stereo not given) the Potency was inconclusive: 70.8 µM [inhibitor, partial curve].
COc1ccccc1NC(=O)c1cc2c(C)nn(-c3ccccc3)c2s1 was tested, and the Potency was “inactive”.
In the case of Cc1c(C)n(CC(O)CNc2ccccc2)c2ccccc12 (stereo not given), the Potency is reported as inconclusive: 20 µM [inhibitor, full curve].
For O=C(CN1CCCCC1)NN(Cc1ccccc1)c1ccccc1, the Potency was inconclusive: 39.8 µM [inhibitor, partial curve].
With CCOC(=O)c1c(C)[nH]c(N=Nc2ccc(C)cc2)c1C the Potency was inconclusive: 31.6 µM [inhibitor, partial curve].
With CCOc1ccc(-n2c(C)nc3cc(C(=O)NCc4ccc5c(c4)OCO5)ccc32)cc1 the Potency was inconclusive: 31.6 µM [inhibitor, single point].
For O=c1ccc2c(-c3ccccc3)c3ccc(O)cc3oc-2c1, the Potency was inconclusive: 79.4 µM [inhibitor, single point].
With Cn1c(=O)cc(SCC(=O)N2CCN(c3ccccc3F)CC2)c2ccc(Cl)cc21 the Potency was “inactive”.
O=C1NN(c2ccccc2)C(=O)/C1=C/c1ccc(Sc2cccc3ccccc23)o1 was tested, and the Potency was inconclusive: 39.8 µM [inhibitor, partial curve].
With O=C1Nc2ccc(F)cc2C12Nc1ccccc1-c1nnc(SCc3ccccc3)nc1O2 (stereo not given) the Potency was inconclusive: 39.8 µM [inhibitor, single point].
Cc1ccc(-c2csc(=Nc3ccccc3)n2Cc2ccc3c(c2)OCO3)cc1 was tested, and the Potency was inconclusive: 14.1 µM [inhibitor, full curve, poor fit].
In the case of O=C(O)c1ccc(-c2ccc(/C=c3/sc4nc5ccccc5n4c3=O)o2)cc1Cl, the Potency is reported as active: 17.8 µM.
With COCCCn1c(-c2ccc(S(=O)(=O)N3CCOCC3)cc2)csc1=Nc1ccccc1 the Potency was inconclusive: 20 µM [inhibitor, partial curve, poor fit] and inconclusive: 12.6 µM [inhibitor, full curve, poor fit].
For N#CC1=C(N)NC(SCc2ccccc2)=C(C#N)C12CCCC2, the Potency was “inactive”.
COc1ccc(CCNc2ncnc3c2[nH]c2cc(OC)c(OC)cc23)cc1OC was tested, and the Potency was inconclusive: 50.1 µM [inhibitor, partial curve, poor fit].
Cc1ccc(NC(=O)C2CCC(CNS(=O)(=O)c3cccc4nsnc34)CC2)c(Cl)c1 (stereo not given) was tested, and the Potency was “inactive”.
O=S(=O)(/N=S1/CC=CCN1S(=O)(=O)c1ccccc1)c1ccccc1 (stereo not given) was tested, and the Potency was inconclusive: 3.98 µM [inhibitor, full curve, poor fit].
For O=C(O)/C=C\C(=O)Nc1ccc(N2CCN(c3ccc(F)cc3)CC2)cc1, the Potency was inconclusive: 70.8 µM [inhibitor, single point].
With Cc1cccc(C(=O)Nc2sc3c(c2C(=O)NC(C)C)CCCC3)c1 the Potency was “inactive”.
CCOc1ccccc1C(=O)OCC(=O)Nc1ccc(N2CCCCC2)cc1 was tested, and the Potency was inconclusive: 39.8 µM [inhibitor, partial curve, poor fit].
In the case of C=CCc1ccccc1OCC(O)CNC (stereo not given), the Potency is reported as “inactive”.
For Cc1cc(/C=N/n2c(COc3ccccc3C)nc3ccccc3c2=O)c(O)c([N+](=O)[O-])c1, the Potency was inconclusive: 20 µM [inhibitor, full curve].
With Cc1oc2c(c1C(=O)Nc1cccc3ccccc13)CCCC2 the Potency was inconclusive: 5.01 µM [inhibitor, full curve, poor fit].
For Cc1ccc(C(=O)CC(c2cccs2)S(=O)(=O)c2ccc(C)cc2)cc1 (stereo not given), the Potency was “inactive”.
O=C(/C=C/Nc1cccc([N+](=O)[O-])c1)c1cccs1 was tested, and the Potency was “inactive”.
For O=C(CSc1nnc(-c2cccnc2)o1)Nc1ccc(Cl)cc1, the Potency was “inactive”.
In the case of Cc1oc(C(=O)O)cc1CSCc1cc(C(=O)O)c(C)o1, the Potency is reported as “inactive”.
For CC(NO)/C(=N\O)c1cccs1 (stereo not given), the Potency was inconclusive: 89.1 µM [inhibitor, single point].
With CNc1nc2ccccc2n1N the Potency was “inactive”.
With c1ccc(Nc2nc(N3CCCC3)nc(N3CCCC3)n2)cc1 the Potency was “inactive”.
With Cc1ccc(C(C(=O)NCc2ccco2)N(Cc2ccco2)C(=O)CNC(=O)c2ccco2)cc1 (stereo not given) the Potency was inconclusive: 89.1 µM [inhibitor, single point].
With CCN1/C(=C/c2ccc3cc(C)ccc3[n+]2CC)Sc2ccccc21 the Potency was inconclusive: 70.8 µM [inhibitor, partial curve].
COc1ccc(CNC(=S)N2CCN(Cc3ccccc3)CC2)cc1 was tested, and the Potency was inconclusive: 15.8 µM [inhibitor, full curve, poor fit].
For COc1ccc2c(CNC3CCCCCC3)c(C(=O)O)n(Cc3ccccc3F)c2c1, the Potency was “inactive”.
With Cn1c(N)c(C(=O)Nc2ccc(-c3ccccc3)cc2)sc1=S the Potency was inconclusive: 14.1 µM [inhibitor, full curve, poor fit].
With CC1C/C(=C/c2cccs2)C(=O)/C(=C/c2cccs2)C1 (stereo not given) the Potency was inconclusive: 17.8 µM [inhibitor, partial curve].
With CCOC(=O)c1cnc2ccc(C)cc2c1Nc1ccc(N(CC)CC)cc1 the Potency was active: 10 µM.
With COc1cc(CNCCSc2nnnn2C)ccc1OCc1ccc(C)cc1 the Potency was “inactive”.
In the case of COCCCNC(=S)N1CCN(C)CC1, the Potency is reported as inconclusive: 56.2 µM [inhibitor, partial curve, poor fit].
In the case of CCOC(=O)c1nc(Nc2ccc(N3CCC(C)CC3)cc2)c2ccccc2n1, the Potency is reported as inconclusive: 39.8 µM [inhibitor, partial curve].
With C=CCn1c(OCc2ccccc2)n[nH]c1=S the Potency was inconclusive: 79.4 µM [inhibitor, single point].
O=C(CSc1nccc(=O)[nH]1)N1N=C2/C(=C/c3ccco3)CCCC2C1c1ccco1 (stereo not given) was tested, and the Potency was inconclusive: 39.8 µM [inhibitor, partial curve].
In the case of COc1cc(CNCc2ccc(SC)cc2)cc(OC)c1, the Potency is reported as inconclusive: 56.2 µM [inhibitor, partial curve, poor fit].
With COc1ccccc1C(CNc1ccc(S(=O)(=O)N2CCCC2)cc1[N+](=O)[O-])N(C)C (stereo not given) the Potency was inconclusive: 70.8 µM [inhibitor, partial curve].
With CCOC(=O)c1cccc(NS(=O)(=O)c2ccc3[nH]c4c(c3c2)CCCC4)c1 the Potency was inconclusive: 44.7 µM [inhibitor, partial curve].
Cc1ccc(NC(=S)NNC(=O)Cn2nc(C(F)F)cc2C(F)F)cc1 was tested, and the Potency was “inactive”.
CCOc1ccc(-c2cc3c(=O)n(Cc4nc(-c5ccccc5OCC)oc4C)ccn3n2)cc1Cl was tested, and the Potency was “inactive”.
COC(=O)c1sc2ccccc2c1C(=O)OC was tested, and the Potency was “inactive”.
For CCOC1(NC(=O)c2ccccc2)C(C)=CC(=O)C=C1C, the Potency was inconclusive: 20 µM [inhibitor, full curve].
For COc1cccc(C(C)=C2SC(=S)NC2=O)c1, the Potency was inconclusive: 50.1 µM [inhibitor, partial curve].
With CCOC(=O)c1sc(NN=C(C(=O)OC)C(=O)OC)c(C(=O)OCC)c1C the Potency was inconclusive: 28.2 µM [inhibitor, single point].
N#CC1=C(N)Oc2n[nH]c(-c3ccccc3)c2C1c1cccc(OC(=O)N2CCOCC2)c1 (stereo not given) was tested, and the Potency was “inactive”.
Cc1cc(/C=N/n2c(COc3ccccc3)nc3ccccc3c2=O)c(O)c([N+](=O)[O-])c1 was tested, and the Potency was inconclusive: 44.7 µM [inhibitor, partial curve].
COc1cccc(C(=O)N2CCN(Cc3cccc(F)c3)CC2)c1 was tested, and the Potency was inconclusive: 22.4 µM [inhibitor, full curve].
For CN(C)c1ccnc2c[cH-]cc12.[Fe].c1ccc(-[c-]2[c-](-c3ccccc3)[c-](-c3ccccc3)[c-](-c3ccccc3)[c-]2-c2ccccc2)cc1 (stereo not given), the Potency was active: 8.91 µM and active: 3.16 µM.
For CN1CCN(c2ccccc2NC(=O)COc2ccc(C3CCCCC3)cc2)CC1, the Potency was inconclusive: 50.1 µM [inhibitor, partial curve].
Also: nearly all actives have a fitted effect of over 70% in size.
Potency is read from the fitted curve at half-maximal effect; tags tell the direction and shape of the fitted curve.
